# Assay results from PubChem BioAssay (NCATS).
# The shares of active, inactive and inconclusive entries below differ from those in the screen. For some of these results: A potency beside an inconclusive call is a rough fit, not a confirmed value. Calls of active or inactive are those of the source. Unless noted, calls come from the whole dose curve; as a rule, active = well fitted curve in the direction sought with a large enough effect; inconclusive = small, poorly fitted or top-dose-only effect, or another doubt; inactive = no such curve, though single readings can be large; an effect the other way counts as inactive or inconclusive.
# Key:
# [1] = P-glycoprotein substrates identified in KB-8-5-11 adenocarcinoma cell line, qHTS therapeutic library screen (AID 1346987); note: nearly all actives have a fitted effect of over 65% in size
# Outline: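 P-gp-mediated resistance screen: KB-8-5-11 cells treated 72 h with compounds in dose-response. CellTiter-Glo viability.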
# [2] = Primary qHTS for inhibitors of nuclear receptor binding SET domain protein 2 (NSD2) in an isogenic RCH-ACV NSD2 p.E1099K mutant (9B) (AID 1645876); note: nearly all actives have a fitted effect of over 70% in size
# [3] = Primary qHTS for inhibitors of nuclear receptor binding SET domain protein 2 (NSD2) in an RCH-ACV wild type WT cells (2C) (AID 1645877); conditions: activity change, negative = cell killing: at 44.9 µM (top of the series); note: nearly all actives have a fitted effect of over 70% in size
# HEK293 = test: Cytotoxic Profiling of Annotated Libraries Using Quantitative High-Throughput Screening (AID 1296008); conditions: Five cell lines viability, CellTiter-Glo ATP luminescence, 48-72 h; max response: active compounds read low; note: nearly all actives have a fitted effect of over 60% in size; for max response: % is set by controls: 0 for no effect and ±100 for the full control effect
# Outline: (§1)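 Compounds were pin-transferred onto cells and incubated 48 or 72 hr at 37 degree Celsius, 95% humidity. CellTiter-Glo was added, plates sat 10 min at room temperature, then ATP-coupled luminescence was imaged as the viability read-out.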
# HaCat = test: as above; conditions: Five cell lines viability, CellTiter-Glo ATP luminescence, 48-72 h; max response: active compounds read low
# Outline: as §1
# C33A = test: Primary qHTS to identify gynecologic anti-cancer compounds using libraries of approved drugs and bioactive compounds (AID 1345084); conditions: Gynecologic cancer cell panel viability, ATPlite luminescence, 48 h; series mostly up to 57.5 µM; note: nearly all actives have a fitted effect of over 55% in size; for activity change, negative = cytotoxicity: % is set by controls: 0 for no effect and ±100 for the full control effect
# Outline: (§2)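 Measured: luminescence after ATPlite addition (15 min, RT). Exposure: 48 h, 37 C, 5% CO2.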
# Hek293T = test: as above; conditions: Gynecologic cancer cell panel viability, ATPlite luminescence, 48 h, control line for the selectivity index; series mostly up to 57.5 µM
# Outline: as §2
# SKOV3 = test: as above; conditions: Gynecologic cancer cell panel viability, ATPlite luminescence, 48 h; series mostly up to 57.5 µM
# Outline: as §2
# [4] = test system: Zika virus NS2B-NS3 protease (unlinked complex); test: Primary screen GU Rhodamine qHTS for Zika virus inhibitors: Unlinked NS2B-NS3 protease assay (AID 1347159); note: nearly all actives have a fitted effect of over 60% in size
# Outline: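 Compounds, tested up to 114 microM, were incubated for 15 minutes with 25 nM unlinked NS2B-NS3 protease at pH 8.0. Cleavage of 1.5 microM Rhodamine110 substrate was then followed by fluorescence for 15 minutes.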
# [5] = biological target: Cytochrome P450 2D6 (Homo sapiens) (UniProt P10635); test: Cytochrome P450 family 2 subfamily D member 6 (CYP2D6) small molecule antagonists: luciferase biochemical (cell-free) qHTS assay (AID 1645840; active = well fitted curve in the direction sought with a large enough effect in the repeat runs; inconclusive = weak or mixed curves; inactive = no such curve, though single readings can be large; an effect the other way counts as inactive or inconclusive; note: nearly all actives have a fitted effect of over 55% in size)
# Outline: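 P450-Glo luminescent screen: recombinant CYP2D6 enzyme–proluciferin substrate mix preincubated with compound 10 min at room temperature, then NADPH regeneration added for 1 h at room temperature. Detection reagent added for 20 min; luciferin light read as relative luminescence units.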
# CASKI = test: Primary qHTS to identify gynecologic anti-cancer compounds using libraries of approved drugs and bioactive compounds (AID 1345084); conditions: Gynecologic cancer cell panel viability, ATPlite luminescence, 48 h; activity change, negative = cytotoxicity: at 57.5 µM (top of the series); note: nearly all actives have a fitted effect of over 55% in size; for activity change, negative = cytotoxicity: % is set by controls: 0 for no effect and ±100 for the full control effect
# Outline: as §2
# Tov-21-G = test: as above; conditions: Gynecologic cancer cell panel viability, ATPlite luminescence, 48 h; activity change, negative = cytotoxicity: at 57.5 µM (top of the series)
# Outline: as §2
# Tov112D = test: as above; conditions: Gynecologic cancer cell panel viability, ATPlite luminescence, 48 h; activity change, negative = cytotoxicity: at 57.5 µM (top of the series)
# Outline: as §2
# [6] = Primary fluorescence-based thiol-reactive (MSTI) qHTS assay for identification of artifact compounds. (AID 1845221);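 note: thiol-reactive compounds lower the probe fluorescence signal; nearly all actives have a fitted effect of over 65% in size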
# Outline: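 Reactivity toward the thiol probe MSTI (4 uM) is scored by fluorescence at Ex/Em 525/598 nm after 1 h at room temperature. Acetyl-MSTI and MSTI define the activity scale.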
# PA-1 = test: Primary qHTS to identify gynecologic anti-cancer compounds using libraries of approved drugs and bioactive compounds (AID 1345084); conditions: Gynecologic cancer cell panel viability, ATPlite luminescence, 48 h; series mostly up to 57.5 µM; note: nearly all actives have a fitted effect of over 55% in size; for activity change, negative = cytotoxicity: % is set by controls: 0 for no effect and ±100 for the full control effect
# Outline: as §2
# HeLa = test: as above; conditions: Gynecologic cancer cell panel viability, ATPlite luminescence, 48 h; series mostly up to 57.5 µM
# Outline: as §2
# CAOV3 = test: as above; conditions: Gynecologic cancer cell panel viability, ATPlite luminescence, 48 h; series mostly up to 57.5 µM
# Outline: as §2
# OV90 = test: as above; conditions: Gynecologic cancer cell panel viability, ATPlite luminescence, 48 h; series mostly up to 57.5 µM
# Outline: as §2
# Potency is the fitted concentration of half-maximal effect; tags give direction and shape of the fitted curve.
# Sequence of UniProt P10635 (P10635 whole entry, looked up): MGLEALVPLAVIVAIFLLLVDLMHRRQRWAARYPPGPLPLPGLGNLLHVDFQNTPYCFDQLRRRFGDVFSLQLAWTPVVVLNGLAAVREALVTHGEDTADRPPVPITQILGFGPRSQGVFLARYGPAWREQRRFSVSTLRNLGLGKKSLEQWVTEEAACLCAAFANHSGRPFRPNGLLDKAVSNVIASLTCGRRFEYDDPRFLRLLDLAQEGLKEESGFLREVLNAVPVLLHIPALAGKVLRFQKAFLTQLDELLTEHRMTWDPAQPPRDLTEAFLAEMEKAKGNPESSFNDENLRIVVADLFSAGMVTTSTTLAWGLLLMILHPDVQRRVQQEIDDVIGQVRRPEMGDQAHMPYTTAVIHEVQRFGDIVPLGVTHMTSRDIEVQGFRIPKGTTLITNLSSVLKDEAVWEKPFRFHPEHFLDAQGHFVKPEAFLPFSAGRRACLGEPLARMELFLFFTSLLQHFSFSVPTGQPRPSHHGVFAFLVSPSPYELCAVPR
structure (smiles),measurement,setting,value
CC12CCC3C1C(c1c(cc(O)c(C(=O)c4ccccc4)c1O)O2)C3(C)C (configuration not stated),Potency,[1],"inconclusive: 20.2 µM [inhibitor, single point]"
same,Potency,[2],"inconclusive: 20.1 µM [inhibitor, partial curve, poor fit]"
same,Potency,[3],"inconclusive: 20.1 µM [inhibitor, single point]"
same,Potency,HEK293,"inconclusive: 12.8 µM [inhibitor, partial curve, poor fit]"
same,outcome,HaCat,inactive
same,Potency,C33A,inactive
CN=C(NC#N)NCCSCc1csc(N=C(N)N)n1,Potency,[3],inactive
same,Potency,HEK293,"inconclusive: 23.7 µM [inhibitor, single point]"
same,max response,HaCat,inactive: 3.38%
same,Potency,C33A,inactive
same,Potency,Hek293T,"inconclusive: 28.2 µM [rising, partial curve, poor fit]"
same,Potency,SKOV3,inactive
NS(=O)(=O)c1ccc(NC(=O)Nc2ccc(F)cc2)cc1,Potency,[4],inactive
same,Potency,[5],"inconclusive: 21.3 µM [inhibitor, single point]"
same,Potency,HEK293,"inconclusive: 29.1 µM [inhibitor, single point]"
same,outcome,HaCat,inactive
same,Potency,CASKI,inactive
same,Potency,Tov-21-G,inactive
same,Potency,Tov112D,inactive
COc1ccc(CN2C(=O)C(=O)c3cc(S(=O)(=O)N4CCC[C@H]4COc4cccnc4)ccc32)cc1,Potency,[3],inactive
same,outcome,HEK293,inactive
same,Potency,HaCat,"inconclusive: 29.1 µM [inhibitor, single point]"
same,Potency,CASKI,inactive
same,Potency,SKOV3,"inconclusive: 4.47 µM [cytotoxic, single point]"
CC1=CC(=O)[C@]2(O[C@@H]3O[C@@H](C)[C@H](O)[C@@H](O)[C@H]3O)C=CO[C@@H](O[C@@H]3O[C@H](CO)[C@@H](O)[C@H](O)[C@H]3O)[C@H]12,Potency,[6],active: 5.82 µM
same,max response,HEK293,inactive: -3.6%
same,outcome,HaCat,inactive
same,Potency,PA-1,inactive
same,Potency,SKOV3,inactive
same,Potency,Tov112D,inactive
CN(C)[C@@H]1C(=O)C(C(N)=O)=C(O)[C@@]2(O)C(=O)C3=C(O)c4c(O)ccc(Cl)c4[C@@H](O)[C@H]3C[C@@H]12,Potency,[2],"inconclusive: 29.9 µM [inhibitor, partial curve, poor fit]"
same,Potency,[3],"inconclusive: 29.9 µM [inhibitor, single point]"
same,Potency,HEK293,"inconclusive: 23.7 µM [inhibitor, single point]"
same,outcome,HaCat,inactive
same,Potency,CASKI,inactive
same,Potency,HeLa,inactive
CC/C=C\C/C=C\C/C=C\CCCCCCCC(=O)OCC(O)COC1OC(CO)C(O)C(O)C1O (configuration not stated),Potency,[1],inactive
same,Potency,[4],"inconclusive: 20 µM [inhibitor, full curve, poor fit]"
same,Potency,[3],inactive
same,max response,HEK293,inactive: -1.09%
same,Potency,HaCat,"inconclusive: 15.9 µM [inhibitor, single point]"
same,Potency,CAOV3,"inconclusive: 17.8 µM [cytotoxic, single point]"
same,Potency,PA-1,inactive
same,Potency,Tov112D,inactive
COc1cc(Br)c(Nc2nc(-c3c(C)nc4ncccn34)cs2)c(Br)c1,Potency,[1],active: 2.31 µM
same,Potency,[4],"inconclusive: 44.7 µM [inhibitor, partial curve]"
same,Potency,[5],"inconclusive: 8.49 µM [inhibitor, partial curve]"
same,Potency,[2],active: 1.45 µM
same,Potency,[3],active: 2.05 µM
same,Potency,[6],"inconclusive: 1.34 µM [inhibitor, partial curve, poor fit]"
same,Potency,HEK293,active: 5.8 µM
same,Potency,HaCat,"inconclusive: 2.06 µM [inhibitor, full curve]"
same,Potency,CAOV3,"inconclusive: 25.1 µM [cytotoxic, single point]"
same,Potency,HeLa,"inconclusive: 14.1 µM [cytotoxic, partial curve]"
same,Potency,Hek293T,"inconclusive: 3.16 µM [cytotoxic, full curve]"
same,Potency,OV90,"inconclusive: 3.55 µM [cytotoxic, full curve, poor fit]"
same,Potency,SKOV3,active: 8.91 µM
same,Potency,Tov-21-G,active: 10 µM
same,Potency,Tov112D,"inconclusive: 8.91 µM [cytotoxic, partial curve]"
COc1ccc(/C=C/C(=O)O[C@@H]2[C@@H](O)[C@H](C)O[C@@H](O[C@H]3[C@@H]4C=CO[C@@H](O[C@H]5O[C@@H](CO)[C@H](O)[C@@H](O)[C@@H]5O)[C@@H]4[C@@]4(CO)O[C@@H]34)[C@@H]2OC(C)=O)cc1,Potency,[4],"inconclusive: 12.6 µM [inhibitor, partial curve]"
same,Potency,[2],inactive
same,Potency,[6],"inconclusive: 6.3 µM [inhibitor, single point]"
same,max response,HEK293,inactive: 0.0012%
same,max response,HaCat,inactive: 3.75%
same,Potency,CAOV3,"inconclusive: 12.6 µM [rising, single point]"
same,Potency,CASKI,"inconclusive: 12.6 µM [rising, single point]"
same,Potency,Tov112D,inactive
